Assay results: PubChem BioAssay AID504832 (National Center for Advancing Translational Sciences (NCATS), 2011)
The campaign covered roughly 310,000 compounds. About 18,000 (5.8%) were called active. Inconclusive means that the source gave no clear call. Such entries were picked first, then a sample of the others. Calls follow the shape of the dose curve; as a rule, active = well fitted inhibition curve with a large enough effect; inconclusive = small, poorly fitted or top-dose-only effect, or another doubt; inactive = no such curve, though single readings can be large or run the other way. No potency is given beside an inconclusive call; the fits are too rough.

Assay: Primary qHTS for delayed death inhibitors of the malarial parasite plastid, 48 hour incubation
Details: P. falciparum luciferase growth in erythrocytes; series mostly up to 28.7 µM
Procedure, shortened: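 Erythrocytes infected with P. falciparum carrying an integrated firefly luciferase reporter (2% hematocrit, 0.1% parasitemia final) were exposed to compounds in RPMI 1640 with 0.5% Albumax at 37 C, 5% CO2. Growth inhibition was scored as reduced luminescence.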
Potency is read from the fitted curve at half-maximal effect; tags tell the direction and shape of the fitted curve.

Structure (SMILES)	Potency
COc1ccccc1N(C)S(=O)(=O)c1ccc(Cl)c(C(=O)Nc2ccncc2)c1	active: 8.28 µM
COc1cccc(C#Cc2c(CO)[nH]c3ccccc23)c1	inconclusive [inhibitor, single point]
CCCCCCCSc1cc(OC)c(CCNC)cc1OC	inconclusive [inhibitor, single point]
CCOC(=O)N1CCN(C(=O)CCc2c(C)nc3nc(C)nn3c2C)CC1	inconclusive [inhibitor, partial curve]
CCN(Cc1ccncc1)C(=O)c1cc(COc2ccc(C)c(C)c2)on1	inconclusive [inhibitor, single point]
O=C(CSc1nc(=O)n(CCN2CCOCC2)c2c1CCCC2)Nc1ccc(F)cc1F	inconclusive [inhibitor, single point]
COc1ccc(-c2noc(N3CCC(C(=O)NCCCN4CC(C)CC(C)C4)CC3)n2)cc1 (configuration not stated)	inconclusive [inhibitor, single point]
CCCS(=O)(=O)c1nc(S(=O)(=O)c2ccc(C)cc2)c(N2CCOCC2)s1	active: 11.7 µM
Cc1csc(NC(=O)[C@@H]2CCCN2C(=O)c2cccs2)n1	inconclusive [inhibitor, full curve, poor fit]
Cc1cc(OCc2ccc(C(=O)n3cccn3)o2)ccc1Cl	inactive
C=CCn1c(CCc2cc(C(C)(C)C)c(O)c(C(C)(C)C)c2)n[nH]c1=S	inconclusive [inhibitor, partial curve]
O=C(NCC1CCN(S(=O)(=O)c2ccccc2)CC1)Nc1ccc(F)cc1	inconclusive [inhibitor, single point]
COc1ccccc1NC(=O)N(Cc1ccco1)Cc1cc2cc(C)cc(C)c2[nH]c1=O	inconclusive [inhibitor, single point]
CCOC(=O)c1c(C)c(/C=N/Nc2ccccc2)n(C)c1C	inconclusive [inhibitor, single point]
COC(=O)C1=C(c2ccc(F)cc2OCc2ccccc2)C[C@@H]2CC[C@H]1N2C(=O)NCc1ccc(C)cc1	active: 9.28 µM
C/C(CC(=O)Nc1ccc2c(c1)OCCO2)=N\NC(=O)COc1ccccc1	inactive
COc1ccccc1NS(=O)(=O)c1cccc(NC(=O)Nc2ccccc2)c1	inactive
NCCCN1CCN(c2ccccc2)CC1	inconclusive [inhibitor, partial curve, poor fit]
COC(=O)C1=CNC=C(C(=O)OC)C1c1cccc(OC)c1	inconclusive [inhibitor, partial curve, poor fit]
COc1ccccc1Nc1nn2c(=O)c3ccc(C(=O)N4CCC(C)CC4)cc3nc2s1	inconclusive [inhibitor, partial curve]
Cc1ccc(CCNC(=O)CS(=O)Cc2nc(-c3cccs3)oc2C)cc1 (configuration not stated)	inactive
O=C(Nc1ccc2c(c1)CN(Cc1ccc(CO)o1)CC2)c1ccc(C(F)(F)F)cc1	inconclusive [inhibitor, single point]
Cn1nnnc1SCC(=O)N1CCN(c2ccc(Cl)cc2)CC1	inactive

Structure (SMILES)	Potency
C=CCn1c(O)c(C(CC)=NCC2CCCO2)c(=O)[nH]c1=O (configuration not stated)	inconclusive [inhibitor, single point]
O=S(=O)(Nc1ccc(-c2csc(-c3ccccc3)n2)cc1)c1ccc(F)cc1	inconclusive [inhibitor, single point]
Cc1cc(C)[n+](C2C3CC4CC(C3)CC2C4)o1 (configuration not stated)	inconclusive [inhibitor, single point]
CC(=O)c1cccc(NC2c3ncccc3C(=O)N2Cc2ccco2)c1 (configuration not stated)	inconclusive [inhibitor, partial curve, poor fit]
Cn1cncc1C#Cc1c(C=O)[nH]c2ccccc12	active: 8.28 µM
O=C1CSC(=Nc2cccc(Cl)c2Cl)N1Cc1cccnc1	inconclusive [inhibitor, partial curve, poor fit]
COCc1cc(Sc2cccc(Cl)c2Cl)nc(-c2ccccc2)n1	inconclusive [inhibitor, full curve, poor fit]
CCN(CC)c1ccc(N=Cc2cc(Br)ccc2O)cc1	inconclusive [inhibitor, partial curve]
O=C(NC(=S)N(Cc1ccccc1)Cc1ccccc1)C1CCCCC1	inconclusive [inhibitor, partial curve, poor fit]
Cc1[nH]c(=O)c(C(=O)/C=C/c2ccccc2)c2c1CCCC2	inconclusive [inhibitor, full curve]
Cn1nnnc1SCC(=O)NC(=O)NCc1ccccc1	inconclusive [inhibitor, single point]
COc1cccc(C(C(=O)NC2CCCCC2)N(C(=O)c2ccco2)c2ccccc2OC)c1 (configuration not stated)	inconclusive [inhibitor, single point]
COc1ccc(CNC(=S)Nc2ccc3nc(N4CCN(C)CC4)cc(C)c3c2)cc1	inconclusive [inhibitor, single point]
Cc1ccc2c(CN3CC(C)CC(C)C3)cc(=O)oc2c1 (configuration not stated)	inconclusive [inhibitor, partial curve, poor fit]
Cc1ccc(N=Cc2cccc(O)c2O)c(C)c1	inconclusive [inhibitor, full curve, poor fit]
CCN1CCN(C(=O)c2ccc3nc(-c4ccccc4)c(-c4ccccc4)nc3c2)CC1	inactive
CC(=O)C1=C(C)N(Cc2ccccc2)C(=O)N[C@@H]1c1cccc(C(F)(F)F)c1	inconclusive [inhibitor, single point]
COc1ccc(S(=O)(=O)N2CCN(CC(=O)N3c4ccccc4CC3C)CC2)cc1OC (configuration not stated)	inconclusive [inhibitor, partial curve, poor fit]
CCN(C(=O)/C=C/c1ccc2c(c1)OCO2)c1ccccc1	inactive
CCCNC(=O)C1(CC2CC(c3ccccc3)=NO2)CCN(C(=O)c2ccccc2)CC1 (configuration not stated)	active: 11.7 µM
O=C(Cc1ccc(Cl)cc1)Nc1ccc(N2CCN(C(=O)c3ccco3)CC2)c(Cl)c1	active: 11.7 µM
Fc1ccccc1C(c1nnnn1C1CCCC1)N1CCN(Cc2ccccc2)CC1 (configuration not stated)	inconclusive [inhibitor, single point]
COc1ccc([C@H]2CC(=O)C=C(c3ccc(C)cc3)C2)cc1	inactive

Structure (SMILES)	Potency
CCN(c1ccccc1)S(=O)(=O)c1cccc(C(=O)NCC2(N(C)C)CCCCC2)c1	inconclusive [inhibitor, partial curve]
CCn1c(COc2ccccc2)nnc1SCC(=O)c1cccc([N+](=O)[O-])c1	inconclusive [inhibitor, single point]
CN(C)S(=O)(=O)n1cc(/C=C(\NC(=O)c2ccccc2F)C(=O)NCCCn2ccnc2)c2ccccc21	active: 10.4 µM
CCCCn1cnc(C(=O)OCC)c1N	inactive
O=C(COC(=O)c1cccnc1Nc1ccccc1F)NC1CC1	inactive
OC(c1cc(C(F)(F)F)nc2c(C(F)(F)F)cccc12)C1CCCCN1 (configuration not stated)	active: 0.0093 µM
Cc1ccc2c(C)nc(N/C(N)=N/S(=O)(=O)c3ccc([N+](=O)[O-])cc3)nc2c1	inconclusive [inhibitor, single point]
Cc1c(OC(C)C(=O)NCc2ccccn2)ccc2c3c(c(=O)oc12)CCC3 (configuration not stated)	inconclusive [inhibitor, single point]
CCCn1c(C2CCCN2c2nc(-c3cccc(Br)c3)cs2)nc2ccccc21 (configuration not stated)	inconclusive [inhibitor, full curve, poor fit]
C/C(=N\NC(=O)c1c([N+](=O)[O-])c(C)nn1C)c1ccc(NC(=O)c2ccc(C)o2)cc1	inactive
COc1cc(Cn2c(N)c(C#N)c3nc4ccccc4nc32)cc(OC)c1	inconclusive [inhibitor, partial curve, poor fit]
Cc1ccc(-c2csc3nc4c5ccccc5c(NCCCN5CCOCC5)nn4c(=O)c23)cc1	inconclusive [inhibitor, single point]
COc1ccccc1C(CC(=O)N1CCCC1)c1ccc2c(c1)OCO2 (configuration not stated)	inconclusive [inhibitor, partial curve, poor fit]
Cc1ccsc1CN(C)C(=O)CN1C(=O)NC2(CCCc3ccccc32)C1=O (configuration not stated)	inconclusive [inhibitor, partial curve]
COc1ccc2c(c1)CCC1C2=NN(/C(C)=C/C(C)=O)C1c1cccc(F)c1 (configuration not stated)	inactive
CCC(=O)Nc1ccc(C(=O)NNC(=O)c2ccccc2)cc1	inactive
COc1cccc(/C=N/NC(=O)c2cc(C34CC5CC(CC(C5)C3)C4)[nH]n2)c1	inconclusive [inhibitor, single point]
COc1ccc(N2CCN(C(=O)COc3ccc4ccccc4c3)CC2)cc1	inactive
O=C(CCc1nc2ccccc2c(=O)[nH]1)NCCN1C(=O)S/C(=C\c2ccccc2Cl)C1=O	inconclusive [inhibitor, single point]
CC(C)CN(C(=O)CCNC(=O)c1ccccc1Cl)C1CCS(=O)(=O)C1 (configuration not stated)	inactive
O=C(Nc1cccc([N+](=O)[O-])c1)C(=O)N1CCCCC1	inconclusive [inhibitor, single point]
